This is one part of the list. At the low end of the ranking, values are background and their order means little.
system: T1, GST-NbGlk1(82-244); assay: protein-binding microarray; conditions: NbGlk1 is a Golden2-like transcription factor of Nicotiana benthamiana; high values mean tight binding; most listed sequences are background and not binding sites; double strand, one strand shown;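 further: rank-based score ranging −0.5 to +0.5 with E above 0.45 taken as significant binding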
T1 sequence: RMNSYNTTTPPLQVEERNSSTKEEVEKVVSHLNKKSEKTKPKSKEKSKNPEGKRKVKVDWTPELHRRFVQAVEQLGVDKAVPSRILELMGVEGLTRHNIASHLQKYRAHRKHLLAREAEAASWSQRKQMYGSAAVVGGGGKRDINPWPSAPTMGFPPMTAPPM

Sequence	binding signal [E-score]
ACCTGCTG	-0.219
ACTAGCGA	-0.114
AATTGCGC	0.227
ACGGAGCG	-0.123
AGCTTGGA	-0.0781
ACAATCTC	0.373
ACGAAACC	-0.0433
ACCCAGCT	-0.0896
AAGCCGTA	-0.118
AAACACCT	-0.0521
ATTTCTGA	0.2
AGCGTCCA	-0.0922
AAAGACGG	-0.0789
AAAGACCA	-0.106
AAATGGGC	-0.112
ACAGTTCG	0.0148
ACGACGGG	-0.205
AATTACAC	0.225
AGTTGAAG	-0.0841
CACATTGG	-0.124
AGGCGAAT	0.256
ATAGGAGC	-0.0934
ACCGGACC	-0.206
ACCGGGAG	-0.258
ATTAAGGG	0.0229

Sequence	binding signal [E-score]
AGAGATTG	0.325
AGAAGGAT	0.111
CAAATCTC	0.426
ATATTCCC	0.393
ATTTATTC	0.146
AACGCAAT	0.344
ACAGTCAG	-0.164
AAATTAAT	0.107
ATTAGGTG	0.017
ACACACAG	0.0767
CACATGTC	-0.123
ACAATTTG	0.0524
AGAACACG	-0.11
CACATAAC	-0.0587
ACTTTTCT	-0.0504
AGATATCT	0.48
AGCATCTG	-0.00169
ATGAGTAG	0.0477
ACGACCGT	-0.191
AACCGACG	0.037
CACTGTCG	-0.109
CACAATAA	0.14
AACAAAAA	0.12
ATTAGTTA	-0.0656
AATGCCTA	0.0141

Sequence	binding signal [E-score]
ATTGTCCC	0.075
ACACTAAT	0.186
AGAGGATG	-0.0479
AAACCAAG	0.0458
CAGACCCC	-0.203
CAAAAAGA	0.0261
AGGTAGCG	-0.0617
AACCATTG	-0.178
ATCAGTCA	0.0635
ACAGCCCA	-0.239
AAAGAGTT	0.112
AATATTGC	0.225
AATTGAAG	0.0609
AAGATTCA	0.205
ATCGTAGC	0.134
ATAGATGC	0.0568
ATCACCTA	0.0666
AACCTTAT	-0.134
AACGGGAA	0.0521
AAAGAGGC	-0.108
ACCGGCGC	-0.167
AACACCGG	-0.0404
AGGCAGAC	-0.385
ATCACGGC	0.11
AACTTCTG	-0.143

Sequence	binding signal [E-score]
AGCAAATG	-0.0847
ATATTGAC	0.153
ATTCCGTG	0.306
ATTAAGTA	0.199
AACCCGCT	-0.215
AATTGAGA	0.135
CAAGATGA	0.0465
ATCCGATA	0.376
AATTCAAT	0.0348
ATGAATGA	0.0334
ACACCAAA	0.071
ACCTGCGA	-0.0456
CAACAGGA	-0.0431
ACCGCTCC	-0.0914
ATGGACTG	-0.246
AGAGACAT	-0.0498
CAACCCTG	-0.0918
AATTCGAC	-0.0337
ATCCCTCC	0.0947
CAACCGGG	-0.243
AGACCTCG	-0.142
ACTTACAT	0.082
AAGGTCTC	-0.255
ACCTGTCA	-0.202
AGGTCTAA	-0.117

Sequence	binding signal [E-score]
AGTGGTGG	-0.0561
ACCAGAGG	-0.138
AAACGCTA	-0.0214
AATACCCG	-0.0563
AGTTCTGG	0.0355
AAGTAAAC	-0.00897
ATTATCAC	0.132
ACCTGCCC	-0.26
ACATCGCT	-0.0352
ACGGCCAT	-0.225
AGGAATAA	0.166
ATTAGGAC	0.00748
ACACTCCT	-0.103
CAAAAACG	-0.0685
ACGAGATG	-0.115
ATGTATGG	-0.031
AGTCTTGA	-0.0323
CAAGTCGG	-0.092
AGGGCCTG	-0.172
ACGTAGAC	-0.137
ATCCTCGA	0.224
AGTTCACG	-0.0796
AGGGTTAC	-0.0759
ATCTTAGG	0.113
ACCTTCCT	-0.173

Sequence	binding signal [E-score]
AAACCGTA	-0.0306
AAGCGGCC	-0.322
ACATATCT	0.344
ACAATGAT	0.0877
AGAAAGCG	-0.102
AAAAGAGG	-0.0266
AGGCCACG	-0.286
CAAAAGCC	-0.0928
ACCCTAAT	-0.0342
AGAGAAAG	-0.0649
AAAAACCG	0.0594
ATACCTAA	0.109
ACAGCGGG	-0.128
AAGGCTTC	-0.291
CAAGGATG	-0.0257
AGCTCCGC	-0.302
AAACGTCT	-0.176
AGCGCTAC	-0.132
ACCGATCT	0.0691
ACCGATAG	0.0199
ATTTTAAC	0.202
ACTATTGA	0.0562
AACTGCAA	0.0843
AGGATTTG	0.383
AGCCCTGG	-0.348

Sequence	binding signal [E-score]
AAGAAGCC	-0.208
ATTTCTGG	0.217
AATGCTAC	-0.173
ACCCAACC	-0.161
ATTTCGAC	0.266
ACTCTCAT	0.0635
ATAACGAC	0.0317
ACCCGGAG	-0.244
AACTTTAA	0.0354
AACGGCAG	-0.179
CAAGACTC	-0.127
CACGGCGA	-0.105
ATAGAGGA	0.14
ATCTGCGA	0.35
CAGCGGGC	-0.337
CACAGCTG	-0.0125
ATGGTCAA	-0.107
ACGGCTCT	-0.0979
ATGCTGCA	-0.0645
ACGAATCA	0.247
ACTCATGA	0.0451
AGCCCGGC	-0.313
CAAGGTAA	0.174
CACTGCAC	-0.084
ACATAAAA	0.123

Sequence	binding signal [E-score]
AAAGGTCT	-0.0474
AGTAGTCA	-0.093
AAGTTCAC	-0.0733
ACGGCGAG	-0.127
CAAGGGAA	0.0129
ATCAGCCG	-0.0643
ACGAGTTC	-0.18
AAATACCC	0.0277
AATGTTTA	0.131
AGAAGCTC	-0.283
ACGGACTA	-0.0842
ACCTAAGT	-0.147
ACCCTCAC	-0.194
AATACCGT	-0.0547
AATTGCAT	0.183
AAGATATT	0.393
ACAAGTTA	0.0146
AAACCTTC	-0.166
AGGAGAAC	-0.109
AAACTTTA	0.0379
AAAAGGGA	-0.0791
AAGGGCAA	-0.112
ATGTCCTA	-0.0548
AATTGGAT	0.2
ACGCAGTG	-0.175

Sequence	binding signal [E-score]
ATCGCGAC	0.287
ACACGTAT	0.13
ATCACTGA	0.161
AAGTTAGA	0.00555
AACGAGCG	-0.114
AACGCACC	-0.243
ATCCGTTA	0.315
AAGAGGAC	-0.251
AAGGTCGT	-0.116
CACCAGCA	-0.0601
ATATACCC	0.0513
ACCTAGGC	-0.123
AGTGGAAG	-0.0915
AGAGATAA	0.0746
AGACTACG	-0.0629
AAGTGTTG	-0.00112
AATTGATC	0.0759
ATCCCGTA	0.31
ACAGAGGA	-0.0407
